Test results taken from PubChem BioAssay AID1508624 (National Center for Advancing Translational Sciences (NCATS), 2021).
In all, about 48,000 compounds went through this assay and about 120 (0.25%) were called active. Another 4% or so got no clear call; they are omitted. Calls follow the shape of the dose curve; as a rule, active = well fitted activation curve with a large enough effect; inconclusive = small, poorly fitted or top-dose-only effect, or another doubt; inactive = no such curve, though single readings can be large or run the other way. Some of the results follow.

assay: Primary qHTS for Identification of Small Molecule Activators of Huntingtin-Antisense Promoter Activity; details: HEK293 HTT-AS promoter firefly luciferase reporter, 24 h; series mostly up to 57.5 µM; activity change, positive = activation: at the top concentration; also: nearly all actives have a fitted effect of over 55% in size
Method in brief: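 Luminescence was read after Dual-Glo reagent and a 10 min room-temperature incubation. Values were normalized to vehicle (0% activity) and zero RLU (-100% activity). Reporter HEK293 cells had been exposed to compounds (up to 57.5 uM final) for 24 h.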

Activity change, positive = activation, inactive:
CCCNC(=O)C1CCN(c2cc(C)nc3c(-c4ccc(OC)c(OC)c4)c(C)nn23)CC1 5.27%
COc1ccc(CN2C(=O)N(c3ccc(F)cc3)C(=O)C2CC(=O)Nc2ccccc2)cc1 (centres undefined) -2.51%
CCOc1ccc(N2CC(c3nc4ccccc4n3CCC3CCCCC3)CC2=O)cc1 (centres undefined) -18.6%
Cc1ccc(CCNc2nc3ccccc3c3nc(-c4ccccc4)nn23)cc1 4.09%
O=C1N=C(O)CN1/N=C/c1ccc(-c2ccc([N+](=O)[O-])cc2)o1 -2.45%
Cc1oc(-c2ccc(Cl)cc2)nc1CSc1nnc(C)n2c1cc1sccc12 -7.53%
O=C(NCCc1c[nH]c2ccccc12)Nc1ccccc1C(F)(F)F -20.7%
COC(=O)c1cc(NC(=O)Cn2ncc3c2-c2ccccc2OC3)cc(C(=O)OC)c1 -28.7%
COc1ccc(-c2noc(-c3ccc(NC4CCCCC4)c([N+](=O)[O-])c3)n2)cc1OC -2.48%
COc1cc2cc(CNc3ccc(C)cc3)c(=O)n(CC(=O)Nc3ccc(C(C)C)cc3)c2cc1OC -13.2%
CN(C)c1ccc(CNC(=O)CCC(=O)N2Cc3ccccc3Oc3ncccc32)cc1 -16.3%
COc1ccccc1NC(=O)c1ccccc1NC(=O)c1ccccc1 -20.9%
COc1ccc(NC(=O)CSc2nc(-c3ccc(OC)cc3)[nH]c2-c2ccc(F)cc2)cc1 -21%
Cc1ccc(CN(C(=O)COc2ccc(C(C)(C)C)cc2)C2CCS(=O)(=O)C2)o1 (centres undefined) -30.4%
COc1ccc(-c2c3c(nc4sc(C(=O)Nc5ccc(Cl)cc5)c(N)c24)CC(C)(C)CC3=O)cc1 -5.31%
CCOc1ccccc1NC(=O)CN(CCc1ccccc1)S(=O)(=O)c1ccc(C)cc1 -62% [at 11.5 µM, percent change from vehicle, -100% = no light]
Cn1nnc2c(N3CCCCC3)ncnc21 3.26%
CCc1cccc(C)c1NC(=O)CN1C(=O)c2c(c3ccccc3n2C)C1c1ccc(OC)cc1 (centres undefined) -20.2%
Clc1ccc(CNc2nc3ccccc3c3nc(-c4cccnc4)nn23)cc1 -4.9%
CCn1ccc2cc(S(=O)(=O)N3CCC(C(=O)NCCc4ccc(SC)cc4)CC3)ccc21 -31.3%
CCCCN(C)C(=O)CN1C(=O)CCn2nc(-c3cn(C)c4ccccc34)cc21 -17.4%
COc1ccc(-c2nc(CCNC(=O)c3cccs3)cs2)cc1OC -29%
COc1cccc(CCNC(=O)c2c(O)nc3cc(C)ccn3c2=O)c1 -9.75%
CCc1ccccc1NC(=O)C(NS(=O)(=O)c1ccc2c(c1)CCC(=O)N2)c1ccccc1 (centres undefined) 8%
CCc1cccc(NC(=O)c2nc(-c3ccncc3)no2)c1 -6.76%
CCOc1ccc(C(=O)Nc2ccc(-c3nc4cc(C(C)C)ccc4o3)cc2)cc1Cl -21.8%
COc1ccc(C2=NN(CC(=O)NCc3ccccc3Cl)C(=O)CC2)cc1 -0.527%
Cc1ccc(CCNC(=O)c2c(C)oc3ncnc(N4CCOCC4)c23)cc1 -12%
COc1cccc(CNC(=O)N2CCC(CN3CCC(C)CC3)CC2)c1 -2.88%
Cc1ccc(NCc2cccn2-c2nnc(N3CCC(C(=O)NCCc4ccccc4)CC3)s2)cc1 -20.7%
NC(=Nc1ccccc1)Nc1ccccc1
Cc1ccc2c(c1)N(C(=O)N1CCC(C(=O)NCCC3=CCCCC3)CC1)CC(C)O2 (centres undefined) -20.6%
Cc1c(C(=O)N2CCCC2)oc2c1-c1nn(CC(=O)NCc3cccc(F)c3)cc1CC2 -29.3%
Cc1ccccc1Nc1ncnc2c1c(-c1ccccc1)cn2-c1ccc(F)cc1 -17.2%
O=C(CCc1nc2cccnc2n1Cc1ccccc1)NCc1cccc(Cl)c1 -12.1%
OCc1cnc(SCc2cccc(F)c2)n1Cc1ccc(F)cc1 -31.5%
O=C(Nc1cccc(Cl)c1)c1ccc2nc(Cc3ccccc3)oc2c1 5.41%
Cc1ncc(COC(=O)C(C)C)c2cc(C(=O)Nc3ccccc3C(F)(F)F)c(=O)oc12 -11.5%
CCN(CC)CCCNC(=O)CCc1c(C)n(CC)c2cc(-c3ccccc3OC)nn2c1=O 1.59%
CCCCn1c(CNC(=O)C23CC4CC(CC(C4)C2)C3)nnc1SCC(=O)Nc1ccccc1 -15.9%
CCOc1ccc(CCNc2ncnc3onc(-c4ccc(F)cc4)c23)cc1OCC -34%
CN1c2ccc(Cl)cc2-c2nc(SCC(=O)Nc3cc(F)ccc3F)ncc2S1(=O)=O -34.3%
COC(=O)NNC(=O)C1CCC(C)CC1 (centres undefined) -11.8%
Cc1cccc(N2C(=O)CS(=O)(=O)C23C(=O)N(C)c2ccccc23)c1 (centres undefined) -9.03%
COC(=O)c1ccccc1NC(=O)c1ccc2c(c1)CCN2S(=O)(=O)c1ccc(C)cc1 -8.46%
O=c1cc(-c2ccccc2)n2c(SCc3ccc([N+](=O)[O-])cc3)nnc2[nH]1 2.81%
CC1=C(C(N)=O)C(c2cccc(F)c2)n2nc(SCc3ccccc3)nc2N1 (centres undefined) 5.58%
O=C(O)Cn1nc(N2CCN(c3ccc(F)cc3)CC2)ccc1=O -2.99%
COc1cc(OC)c(NC(=O)C2=C(C)C(=O)OC23CCCCC3)cc1Cl -20.7%
COc1ccccc1CNC(=O)c1cc(Sc2cccc(Cl)c2)nc2ccccc12 -30.6%
CCc1ccc(C(=O)c2cnc3ccc(C)cc3c2S(=O)(=O)c2ccc(OC)cc2)cc1 -34.8%
CCCCc1ccc(C(=O)Nc2ccc3nc(N(CC)CC)cc(C)c3c2)cc1 -37.7%
COc1ccc2cc(CNc3ccc(C)cc3)c(=O)n(CC(=O)Nc3ccc(OC)c(Cl)c3)c2c1 -9.58%
O=C(CCCn1c(=O)c2sccc2n(Cc2ccc(F)cc2Cl)c1=O)NCc1ccc2c(c1)OCO2 -24.2%
COCCn1c(C)cc(O)c(C(c2ccccc2OC)N2CCCCC2)c1=O (centres undefined) -15%
COc1ccc(C(CC(=O)Nc2ccc(OC)c(OC)c2)N2Cc3ccccc3C2=O)cc1 (centres undefined) -18.8%
O=C(Nc1cccc(C2=NCCN2)c1)Nc1cccc(C2=NCCN2)c1 -18.8% [at 25.1 µM, percent change from vehicle, -100% = no light]
Cc1ccc(C)c(N2CCN(C(=O)c3cccn3-c3nnc(N4CCCCC4)s3)CC2)c1 -24.4%
COc1cccc(CNC(=O)c2cc3c(=O)n(C)c4ccccc4c3n2C)c1 -2.07%
CCc1nc2ccc(C(=O)NCCc3ccc(OC)c(OC)c3)cc2nc1CC 10.3%
CCOc1ccccc1CNC(=O)c1[nH]c2ccccc2c1Sc1ccccc1 -12.1%
CCn1ccc2cc(S(=O)(=O)N3CCC(C(=O)NCCOC)CC3)ccc21 -11.2%
O=S(=O)(c1ccc(-c2cc(C(F)(F)F)on2)s1)N1CCN(c2cccc(Cl)c2)CC1 -12.5%
CCN1CCN(CCCNC(=O)c2cc3c(s2)-c2c(C)cccc2OC3)CC1 -13.4%
CCCOC(=O)c1ccc(N)cc1 21.6%
Cc1nn2c(C(F)(F)F)cc(-c3ccc(OC(C)C)cc3)nc2c1C#N 11.8%
Cc1ccccc1OCC(=O)Nc1ccccc1C(=O)OCc1cc(=O)n2c(C)csc2n1 -46.5%
Cc1ccc2c(c1)c1c(n2CCc2ccc(C)nc2)CCN(C)C1 -16.6%
Cc1ccc(Nc2cc(C(=O)NC3CCCC3)c3ccccc3n2)c(C)c1 -7.69%
COc1ccc(NC(=O)CSC2=Nc3ccccc3C3=NC(Cc4ccccc4)C(=O)N23)cc1Cl (centres undefined) -15.2%
CN(Cc1ccccc1)C(=O)Cn1ncc2c3ccccc3n(Cc3cccc(Cl)c3)c2c1=O -20.4%
Cc1ccc(Cl)cc1Nc1sc(C(=O)c2ccccc2)c(N)c1S(=O)(=O)c1ccccc1 -6.98%
CCc1cnc2c(c1SCC(=O)NCc1ccccc1)c(=O)n(C)c(=O)n2C -2.54%
CC(C)(C)c1ccc(C(=O)N2CC(=O)Nc3ccc(F)cc3C2c2ccc(F)cc2)cc1 (centres undefined) -31.8%
Cc1cc(C)c2oc(-c3cccc(NC(=O)c4cc5ccccc5o4)c3)nc2c1 6.89% [at 11.5 µM, percent change from vehicle, -100% = no light]
COc1cc(C2c3c(oc4ccccc4c3=O)C(=O)N2Cc2ccccc2Cl)ccc1O (centres undefined) -10.3%
COc1cc(CCC(=O)NCc2ccc3c(c2)CCN3C(=O)c2cccc(C)c2)cc(OC)c1OC -8.34%
CC(=O)OCC(=O)[C@@]1(O)CC[C@H]2[C@@H]3CCC4=CC(=O)C=C[C@]4(C)[C@H]3[C@@H](O)C[C@@]21C -8.28%
Cc1ccc2nc(SCc3nc(-c4ccccc4C)no3)[nH]c2c1 -34.3%
Cc1ccc2c(CC(=O)Nc3c(C(=O)Nc4cccc(Cl)c4)oc4ccccc34)coc2c1C 31%
Cc1ccccc1Cn1c(Oc2ccccc2F)nc2c1c(=O)n(C)c(=O)n2C 0.387%
Cc1ccc(NC(=O)Cn2c(=O)c(C(F)(F)F)nc3ccccc32)c(C)c1 4.81%
CCCCN(CC)CCNC(=O)Cn1c(=O)c2cccn2c2cccnc21 -17.1%
Cc1ccc(N2CCN(C(=O)C3CCC(CNS(=O)(=O)c4ccc(Br)s4)CC3)CC2C)cc1 (centres undefined) -35.8%
Cc1c(NC(=O)C(C)(C)C)cccc1-c1nc2ccccc2s1 17.8%
Cc1ccc(-n2nc(C(=O)N3CCN(c4cc(C)ccc4C)CC3)c3c4ccccc4n(C)c3c2=O)cc1 6.85%
CCOc1ccccc1NC(=O)Cn1c(=O)n(-c2ccc(Cl)cc2)c(=O)c2oc3ccccc3c21 1.42%
Cn1cc(S(=O)(=O)N2CCc3ccccc32)cc1C(=O)Nc1ccc(C(F)(F)F)cc1 -39.7%
CCN(CC)c1ccc(NC(=O)Cn2cc3c(n2)CCCC3)c(C)c1 -13.5%
Cn1c(=O)n(C)c2cc(N3CCCCC3)c(NC(=O)Nc3ccc(Br)cc3)cc21 -17%
CCc1ccc(NC(=O)CSc2nc3c([nH]c4ccccc43)c(=O)n2C)cc1 -14%
Cc1ccc(-n2c(=O)c3ccc(C(=O)NCc4ccccc4Cl)cc3n(Cc3cccc(F)c3)c2=O)cc1 -12.8%
Cc1ccc(CNC(=O)C2CCCN(c3nn4cc(-c5ccc(C)cc5)nc4s3)C2)cc1 (centres undefined) -10.9%
COc1ccc(N2CCN(C(CNC(=O)c3c(F)cccc3F)c3ccc4c(c3)OCO4)CC2)cc1 (centres undefined) -0.806%
